Laboratory results as given in patent US10253086B2, “CD20 therapies, CD22 therapies, and combination therapies with a CD19 chimeric antigen receptor (CAR)-expressing cell” (Novartis AG, priority 2015, dated 2019).

What was measured:
[1] = target: recombinant human CD22-Fc (Homo sapiens, UniProt P20273); experiment: Surface expression of CD22 CAR in primary human T-cells (Protein-L, rhCD22-Fc); type: cell-based; settings: day 10, flow cytometry
Experimental: Primary human T-cells were activated with anti-CD3/antiCD28 stimulatory beads on day 0, followed by lentiviral transduction of specified CAR constructs on day 1. Cells were expanded in vitro until day, 10 at which point they were analyzed by flow cytometry for surface expression of CAR. Two different approaches were utilized to determine surface expression of CAR: Protein-L-biotin followed by streptavidin-PE, and recombinant human CD22-Fc followed by anti-Fc-alexafluor 488. […] CD22 CAR m971 served as a positive control for binding both Protein-L and hrCD22-Fc, and Isotype CAR with no specificity (anti-gH) served as a positive control for Protein-L. T cells expressing no CAR were used as a negative control.

[2] = system: Raji, SEM, K562-hCD22, Daudi, and Nalm6; experiment: Primary T-cell tumor target killing assay; type: cell-based, human; settings: CD22 expressing luciferase target cell lines
From the text: Primary T-cells activated and transduced as described above were mixed with target cell lines stably expressing luciferase at the ratios indicated (FIG. 20A-20F). […] Untransduced T-cells (UTD) lacked the ability to kill target cell lines.

cynomolgus CD123 = experiment: Cross-reactivity of anti-CD123 clones with cynomolgus CD123; type: binding
From the text: Their activity was compared against mouse clones 1172 and 1176, comprising the VH and VL domains in a light-to-heavy orientation with a CD8 hinge domain, CD8 transmembrane domain, and 41BB-costimulatory domain. […] 1172 is not.

Molecule	surface expression of CAR [1]	target cell killing [2]	cross-reactivity against cynomolgus CD123 (cynomolgus CD123)
hCD22-30: human CD22 CAR (protein) scFv: [about 100 residues not given here]EPASSSWYGYYYYMDVWGKGTLVTVSSGGGGSGGGGSGGGGSGGGGSDIQMTQSPSSLSASVGDRVTITCRASQSINTYLNWYQQKPGKPPKLLIYAASNLQSGVPSRFSGSGSGTHFTLTISSLQPDDFATYYCQQSYSSLLTFGGGTKLEIK	positive surface expression	dose-dependent target cell killing	
NVS 2: human anti-human CD123 clone expressing CAR123-2 (antibody, V domains shown) VH: [about 100 residues not given here]DMNILATVPFDIWGQGTMVTVSS VL: DIQMTQSPSSLSASVGDRVTITCRASQSISSYLNWYQQKPGKAPKLLIYAASSLQSGVPSRFSGSGSGTDFTLTVNSLQPEDFATYYCQQGDSVPLTFGGGTRLEIK			cross-reactive against cynomolgus CD123
